Columns and labels:
[1] = system: HCMV strain GDGr K17 - resistant isolate; test: HCMV primary assay, resistant isolate GDGr K17, HFF cells; type: cell-based, Human Cytomegalovirus; conditions: Human betaherpesvirus 5, HFF
Procedure: (§1) Assays were performed in monolayers as described. […] Toxicity was measured using CTG as above. […] Toxicity was measured using CTG as above.

HCMV strain AD169 = test: HCMV secondary assay (yield reduction), strain AD169, HFF cells; type: cell-based, Human Cytomegalovirus; conditions: Human betaherpesvirus 5, virus strain AD169, HFF cells
Procedure: (§2) Monolayers of HFF cells were prepared in 96-well plates and incubated at 37° C. for 1 d to allow the cells to reach confluency. Media was then aspirated from the wells and cells infected at a high MOI. At 1 h following infection, the inocula were removed and the monolayers rinsed with fresh media. […] Drug dilutions were added to the wells and the plates were incubated for various times, depending on the virus used and represents a single replication cycle for the virus. A duplicate set of dilutions were also performed but remained uninfected to serve as a cytotoxicity control and received equal compound exposure. Supernatants from each of the infected wells were subsequently titered using CTG in a TCID50 assay to quantify the progeny virus. For HCMV only, viral yield in the supernatants from the infected cells were titered using qPCR with HCMV primers [NT], and probe [NT].

[2] = Cytotoxicity concurrent with HCMV secondary assay; type: cell-based; conditions: human, HFF cells
Procedure: as §2

in vitro [3] = type: cell-based; conditions: guinea pig
[4] = Cytotoxicity concurrent with Guinea pig CMV secondary assay; type: cell-based; conditions: GP lung cells
[5] = system: VZV strain 15-6-001 resistant isolate; test: microbe, parasite or virus in culture; type: cell-based, Varicella Zoster Virus; conditions: Human alphaherpesvirus 3, HFF
Procedure: as §1
(§3) Monolayers of HFF cells were prepared in six-well plates and incubated at 37° C. for 2 d to allow the cells to reach confluency. Media was then aspirated from the wells and 0.2 mL of virus-containing solution was added to each of three wells to yield 20-30 plaques in each well. The virus was allowed to adsorb to the cells for 1 h and the plates were agitated every 15 minutes. Compounds were diluted in assay media consisting of MEM with Earl's salts supplemented with 2% FBS, glutamine, penicillin, and gentamycin. Diluted drug was added to duplicate wells and the plates were incubated for various times, depending on the virus used. For HSV-1 and -2, the monolayers were then stained with 1% crystal violet in 20% methanol and the unbound dye removed by washing with dH20. For all other assays, the cell monolayer was stained with 1% Neutral Red solution for 4-6 h then the stain was aspirated and the cells were washed with PBS.

[6] = Cytotoxicity concurrent with VZV 15-6-001 primary assay; type: cell-based; conditions: human
Procedure: as §1

[7] = system: HSV1 strain DM.2 - resistant isolate; test: HSV1 primary assay, resistant isolate DM.2, HFF cells; type: cell-based, Herpes Simplex Virus 1; conditions: Human alphaherpesvirus 1, HFF
Procedure: as §1, §3

in vitro [8] = type: cell-based; conditions: human
Procedure: as §1

[9] = system: Epstein-Barr virus Akata strain; test: Epstein-Barr primary assay, Akata strain, Akata cells; type: cell-based; conditions: human gammaherpesvirus 4
[10] = system: Human herpes virus 6B strain Z29; test: Human herpes virus 6B primary assay, strain Z29, MOLT-3 cells; type: cell-based, Human Herpesvirus 6B; conditions: Human betaherpesvirus 6B
[11] = Cytotoxicity concurrent with HHV-6B primary assay; type: cell-based; conditions: human, MOLT-3 cells
[12] = system: Human herpes virus 8 strain BCBL-1; test: Human herpes virus 8 primary assay, BCBL-1 cells; type: cell-based, Human Herpesvirus 8; conditions: Human gammaherpesvirus 8, BCBL1, strain BCBL-1, BCBL-1 cells
[13] = Cytotoxicity concurrent with HHV-8 primary assay; type: cell-based; conditions: human, BCBL-1 cells
[14] = system: Adenovirus Adenoid75 strain; test: Adenovirus primary assay, Adenoid75 strain, HFF cells; type: cell-based; conditions: unidentified adenovirus
[15] = Cytotoxicity concurrent with Adenovirus primary assay; type: cell-based, human; conditions: human
[16] = system: Adenovirus Adenoid75 strain; test: Adenovirus secondary assay (yield reduction), Adenoid75 strain, HFF cells; type: cell-based; conditions: unidentified adenovirus, Adeno secondary assay
Procedure: as §2

[17] = Cytotoxicity concurrent with Adenovirus secondary assay; type: cell-based; conditions: human; Adeno secondary assay, HFF cells
Procedure: as §2

in vitro [18] = conditions: human, HFF cells
[19] = Cytotoxicity concurrent with EBV primary assay; conditions: human, Akata cells

Nc1ccn(C[C@@H](CO)OCP(=O)(O)O)c(=O)n1 [Cidofovir, reference compound]
EC50 [1]: 0.21 µM
EC90 [1]: 2.99 µM
EC90 (HCMV strain AD169): 0.75 µM
CC50 [2]: 20 µM
CC50 at 7 d (in vitro [3]): 150 µM
CC50 [4]: 100 µM
EC90 [5]: 30 µM
CC50 [6]: 115 µM
EC50 [7]: 1.07 µM
EC90 [7]: 150 µM
CC50 (in vitro [8]): 150 µM
EC50 [9]: 3.31 µM
EC90 [9]: 74.2 µM
EC50 [10]: 8.45 µM
EC90 [10]: 27.7 µM
CC50 at 7 d [11]: 100 µM
EC50 [12]: 3.22 µM
EC90 [12]: 15.8 µM
CC50 [13]: 100 µM
EC50 [14]: 4.91 µM
EC90 [14]: 150 µM
CC50 [15]: 150 µM
EC90 [16]: 3.27 µM
CC50 [17]: 100 µM
CC50 (in vitro [18]): 139 µM
CC50 at 72 h [19]: 100 µM
